Assay results reported in PubChem BioAssay (NCI).
Several values for one entry are separate records, joined by “and”; a condition that tells them apart may be missing. Equal entries are not always repeated.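 Exposure lasted 48 hours, with cells grown in 96-well plates and compounds tested at five concentrations. GI50: concentration for 50% inhibition of growth. TGI: total growth inhibition.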

Tested on: NCI-H322M lung
Test: NCI tumour cell line growth inhibition, 48 h

Row | SMILES | GI50 | TGI [µM]
1 | N#CC(=C1SCS1)[N+](=O)[O-] | 19.4 µM | > 100
2 | COc1cc(/C=C\[N+](=O)[O-])ccc1O | 5.67 µM | 19.2
3 | O=C(c1ccc2ccccc2c1)c1c(C(F)(F)F)n([O-])c2cc(Cl)c(Cl)cc2[n+]1=O | 1.84 µM | 4.03
4 | COc1ccc(-c2c(C#N)c(N)n(C3OC(CO)C(O)C(O)C3O)c(=S)c2C#N)cc1 (stereo not given) | – | > 100
5 | CCOc1ccc(S(=O)(=O)/N=C2\C=C(SCC(=O)O)C(=O)c3ccccc32)cc1 | 18.6 µM | 35.6
6 | CC1(C)N=C(N)N=C(N)N1c1ccc(CCCCc2ccc(S(=O)(=O)F)cc2)cc1 | 2.72 µM | > 77.2
7 | COc1ccc(-c2nn(-c3cccc(Cl)c3)cc2C2CC(c3ccccc3)=NN2C(C)=O)cc1 (stereo not given) | 9.26 µM | > 100
8 | FC(F)(F)c1nc(-c2ccccc2Cl)[nH]c1C(F)(F)F | – | 3.55
9 | CC[C@@H]1CC[C@@H]2[C@H](CC[C@]3(C)[C@@H](O)CC[C@@H]23)[C@H]1C(=O)O | – | > 100
10 | COc1cc2oc(-c3ccc(O)cc3)c(OC3OC(C)C(O)C(O)C3O)c(=O)c2c(O)c1OC (stereo not given) | – | > 100
11 | CC(=O)OC1=C2CC3(C)OC(=O)CC(C)(C)C3=CC=C2C=C(C(C)C)C1=O (stereo not given) | – | 3.1
12 | Oc1ccccc1/C=N/Nc1ccc2ccccc2n1 | 4.78 µM | > 100
13 | c1ccc([P+](CCNCCNCC[P+](c2ccccc2)(c2ccccc2)c2ccccc2)(c2ccccc2)c2ccccc2)cc1 | – | > 100
14 | O=C1NC2(CCCC2)C(=O)C12CCCC2 | – | > 100
15 | CCCCc1c(O)nc(Nc2nc3ccccc3[nH]2)[nH]c1=O | – | > 100
16 | O=[Se]([O-])c1ccccc1.O=[Se]([O-])c1ccccc1.[OH3+].[OH3+].[Pt+2] | 3.49 µM | 22.8
17 | CC12CC(c3ccccc3O1)C(C(=O)Nc1ccc(F)cc1)C(=O)N2 (stereo not given) | – | > 100
18 | Cc1ccc(S(=O)(=O)N2CCN3C(=O)c4ccccc4C32c2ccc(F)cc2)cc1 (stereo not given) | – | > 100
19 | CCCCCCCCCCCCCC(=S)NCCCC[C@H](NC(=O)OCc1ccccc1)C(=O)Nc1ccccc1 | > 100 µM | > 100
20 | CC(CO)(CO)N=Cc1cc(I)cc(I)c1O | – | 55.2
21 | COc1ccc(NC(=O)Nc2n[nH]c3ccccc23)cc1 | > 100 µM | > 100
22 | CCCCCCCCCC[C@@H](O)[C@H]1CC[C@H]([C@H]2CC[C@H]([C@H](O)CCCCCCCCCC[C@@H]3CC(CC(C)=O)C(=O)O3)O2)O1 (stereo not given in full) | – | > 50
23 | CCOC(=O)CCC(NC(=O)c1ccc(OCc2nc3cc(C(F)(F)F)ccc3nc2-c2ccccc2)cc1)C(=O)OCC (stereo not given) | – | > 100
24 | CNC(=O)c1ccccc1CC1(O)c2ccccc2Oc2ccccc21 | 34.6 µM | > 100

Row | SMILES | GI50 | TGI [µM]
25 | Cc1cc2nc3c4cc(Cl)ccc4n(CCN(C)C)c3nc2cc1C | 1.55 µM | 5.15
26 | CCOc1ccc(NC(=O)CC2Sc3ccccc3NC2=O)cc1 (stereo not given) | – | > 100
27 | CCOC(=O)c1cc(C2(O)CCN(Cc3ccccc3)C2=O)c(-c2cc(C)no2)[nH]1 (stereo not given) | – | > 100
28 | CC(C)CC(N)C(=O)OCN1C(=O)C2C3C=CC(C2C1=O)C1C2C(=O)N(COC(=O)C(N)CC(C)C)C(=O)C2C31 (stereo not given) | – | > 100
29 | COC(=O)C1(Cc2ccccc2)Cc2cc3c(cc2C1=O)CCC3 (stereo not given) | – | 11.7
30 | Cc1cn(C2CC(N)C(CN)O2)c(=O)[nH]c1=O (stereo not given) | – | > 100
31 | Cc1ccn2c3c(c(C(=O)O)c2c1)C(=O)c1ccccc1C3=O | 1.73 µM | 4.25
32 | C1COCCN1.C1COCCN1.N.N.[Cl-].[Pt+2] | 2.84 µM | > 100
33 | CCN(CC)CCOC(c1cc(OC)ccc1OC)c1ccc2n1-c1ccccc1OC2 (stereo not given) | – | 31.2
34 | Cc1c(Cl)ccc2c(=O)c3cccc(CC(=O)O)c3oc12 | – | > 100
35 | O=c1[nH]c2ccccc2cc1C(Cl)=C(Cl)Cl | – | > 100
36 | C/C(=N\NC(=S)NC(C)C)c1nc2ncccc2[nH]1 | – | > 100
37 | C[C@]12OC[C@H](c3ccccc3)N1C(=O)C1[C@H]2CC12SCCS2 (stereo not given in full) | – | > 100
38 | Nc1n[nH]c(=O)[nH]1 | – | > 100
39 | C=CCSC[C@H](NC(=O)COc1ccccc1)C(=O)NC(C(=O)OCc1ccc([N+](=O)[O-])cc1)=C(C)C | – | > 100
40 | CCC(=O)C(c1ccccc1)c1ccccn1 (stereo not given) | – | > 100
41 | C[C@@H]1CC[C@@H]2[C@@H]1[C@H](OC(=O)/C=C/c1ccccc1)[C@]1(c3ccccc3)C[C@@H](OC(=O)CO)[C@@]2(C)O1 | 13.4 µM | 31.5
42 | COc1ccc(-c2c(C#N)c(S)n(C3OC(COC(C)=O)C(OC(C)=O)C(OC(C)=O)C3OC(C)=O)c(=O)c2C#N)cc1 (stereo not given) | – | > 100
43 | CC(=O)Nc1cccc(-n2c(=O)n(C3CC3)c(=O)c3c(Nc4ccc(I)cc4F)n(C)c(=O)c(C)c32)c1 | < 0.0119 µM and 0.0507 µM | > 47.5
44 | O=C1CCCN(c2ccccc2)N1 | – | > 100
45 | c1cc2nnc1SCCSCCSc1ccc(nn1)SCCSCCS2 | – | > 100
46 | COc1ccc(C(=O)Nc2ncc(Cc3ccc(Cl)cc3)s2)cc1 | 0.259 µM | > 100
47 | COC1O[C@H]2CCN(C(=O)OCc3ccccc3)[C@H]2[C@H]1OCc1ccccc1 (stereo not given in full) | – | > 100
48 | CCOC(=O)CC1=Nc2ccccc2SC1 | – | 5.86
